# From PubChem BioAssay AID1347120 (National Center for Advancing Translational Sciences (NCATS), 2019)
# Out of some 390,000 compounds screened, about 930 (0.24%) were called active. This list was built around the results that the source calls inconclusive (neither active nor inactive); the mix of calls is not that of the screen. Calls come from the whole dose curve; as a rule, active = well fitted activation curve with a large enough effect; inconclusive = small, poorly fitted or top-dose-only effect; inactive = no such curve, though single readings can be large or run the other way. Where the call is inconclusive, the potency comes from a doubtful curve fit.
# Experiment: qHTS for Suppressors of FUS Proteinopathy: Primary screen using FUS-linked yeast assay; note: nearly all actives have a fitted effect of over 55% in size;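 for growth rescue (activation): plate controls were DMSO vehicle for no effect and reference control for full effect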
# Settings: S. cerevisiae FUS-expressing, OD600, 24 h; Potency: growth rescue; growth rescue (activation): at 76.6 µM (top of the series)
# Outline: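 Galactose (2%) drives FUS expression in yeast precultured in raffinose; seeding density OD 0.005. Test compounds incubated 24hr at 30C and 99% humidity before absorbance at 600 nm was measured.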
# Potency is the fitted concentration of half-maximal effect; tags give direction and shape of the fitted curve.
Structure (SMILES),growth rescue (activation),Potency
CCOc1ccc(-c2nc(CSCC(=O)NCCc3ccc(OCC)c(OCC)c3)c(C)o2)cc1,inactive: 40.3%,–
CC1CCC(=NNC(=O)Cc2ccccc2)CC1 (configuration not stated),–,"inconclusive: 11.2 µM [activator, partial curve]"
O=C(N/N=C/C(Br)=C/c1ccccc1)C1CC1,inactive: -8.84%,–
COc1ccc(-c2csc(NCCc3nc4cc(Cl)c(N5CCCCC5)cc4n3CCOCCO)n2)cc1,–,"inconclusive: 50.1 µM [activator, single point]"
Cc1cc(-c2ccc(C(C)C)c(S(=O)(=O)N3CCN(c4ccccn4)CC3)c2)on1,inactive: 39.2%,–
CCOC(=O)C1=C(CS(=O)(=O)c2ccccc2)NC(=O)NC1c1cc(OC)c(O)c(OC)c1 (configuration not stated),–,"inconclusive: 2.82 µM [activator, full curve, poor fit]"
Cc1ccc(N(CCC#N)C(=O)COC(=O)C2CCN(S(=O)(=O)c3ccc4c(c3)OCCO4)CC2)cc1,–,"inconclusive: 44.7 µM [activator, single point]"
COc1ccc([N+](=O)[O-])cc1NC(=O)C(C)OC(=O)C1CCCC1 (configuration not stated),inactive: 6.89%,–
CC(C)(C)c1cc(NS(=O)(=O)c2ccc(Br)s2)no1,inactive: 19.1%,–
O=c1c2ccccc2c(C=Nc2cccc(O)c2)c(O)n1-c1ccc2c(c1)OCO2,–,"inconclusive: 7.08 µM [activator, full curve]"
Cc1ccc(/C([O-])=C(/C(=S)NCc2ccc3c(c2)OCO3)[n+]2ccc(N(C)C)cc2)c(C)c1,–,"inconclusive: 50.1 µM [activator, partial curve, poor fit]"
COc1ccc(CCNC(=O)CSc2cn(Cc3cccc(C)c3)c3ccccc23)cc1OC,–,"inconclusive: 15.8 µM [activator, partial curve]"
Oc1cccc(C=Nc2cccc3ccccc23)c1O,–,"inconclusive: 15.8 µM [activator, partial curve, poor fit]"
Cc1cccc(-c2ccc3[nH]c4c(c3c2)CCN2C[C@@H]([C@H](C)O)[C@@H](N(C)C(=O)Nc3ccc(F)cc3)C[C@@H]42)c1,–,"inconclusive: 44.7 µM [activator, single point]"
COc1ccc([C@H]2CC(=O)C=C(c3ccc4[nH]ccc4c3)C2)cc1OC,–,"inconclusive: 50.1 µM [activator, single point]"
CCOc1ccc(/C=C/C2=Cc3c(sc(NC(=O)CSc4n[nH]c(N)n4)c3C#N)C(C)(C)C2)cc1,–,active: 8.91 µM
Cc1cc(Nc2cccc(C(F)(F)F)c2)nc2ccc(NC(=O)c3cccc(Cl)c3)cc12,–,"inconclusive: 10 µM [activator, partial curve]"
CC(C)(C)N(Cc1ccccc1)C(=O)CN1C(=O)c2ccccc2C1=O,inactive: 19.9%,–
CCOc1ccccc1NC(=O)c1sc2nc(C)nc(N3CCOCC3)c2c1C,inactive: 7.57%,–
CCC(=O)N1CCN(c2ccccc2NC(=O)Cc2ccccc2)CC1,–,"inconclusive: 50.1 µM [activator, partial curve, poor fit]"
COc1nc(-c2ccccc2)nc(C)c1CC(=O)O,inactive: 4.53%,–

Structure (SMILES),growth rescue (activation),Potency
CC(Nc1c([N+](=O)[O-])c(=O)oc2ccccc12)C(Cl)c1ccccc1 (configuration not stated),–,"inconclusive: 11.2 µM [activator, single point]"
CCC(C)(C)n1nnnc1CN(Cc1ccco1)Cc1cc2cc3c(cc2[nH]c1=O)OCO3,inactive: 2.42%,–
COc1ccc(C(C)=O)cc1CC(=O)Nc1ccccc1-c1ccccc1,–,"inconclusive: 4.47 µM [activator, full curve, poor fit]"
CCOC(=O)CNc1nc(C(C)(C)C)nc2c1nnn2Cc1ccccc1,–,"inconclusive: 11.2 µM [activator, partial curve]"
O=C(CN1C(=O)c2cccnc2Oc2ccc(Cl)cc21)Nc1cccc(C(F)(F)F)c1,–,"inconclusive: 44.7 µM [activator, single point]"
CC(=O)c1ccc(N2CCN(C(=O)c3nn(Cc4ccccc4)c(=O)c4ccccc34)CC2)cc1,–,"inconclusive: 35.5 µM [activator, single point]"
COc1cc(C(=O)Nc2cccc(S(=O)(=O)N3CCCC3)c2)cc(OC)c1C,–,"inconclusive: 50.1 µM [activator, single point]"
O=C(CSc1nnc(-c2ccccc2)n1-c1ccc(Cl)cc1)c1ccccc1Br,–,"inconclusive: 20 µM [activator, partial curve, poor fit]"
CCC(C(=O)N1CCN(c2ccccc2)CC1)n1c(C)c2cnn(-c3ccccc3)c(=O)c2c1C (configuration not stated),–,"inconclusive: 31.6 µM [activator, single point]"
O=C1C(=Cc2cn(-c3ccccc3)nc2-c2ccc(OCc3ccccc3F)cc2)SC(=S)N1CCS(=O)(=O)O,–,"inconclusive: 50.1 µM [activator, single point]"
CC(C)(C)OC(=O)NCCCCCNC(=O)c1ncn(Cc2ccccc2)c1C(=O)NCCCCCNC(=O)OC(C)(C)C,–,"inconclusive: 10 µM [activator, full curve, poor fit]"
COc1ccccc1NC(=O)Cn1nnc(-c2ccccc2NC(=O)c2cc3ccccc3oc2=O)n1,–,active: 25.1 µM
O=C1CCCC2=C1C(c1ccc3c(c1)OCO3)c1c([nH]n(-c3ccccc3)c1=O)N2 (configuration not stated),–,"inconclusive: 39.8 µM [activator, single point]"
CCNC(=O)CCc1nc(-c2ccc(C(C)C)cc2)no1,inactive: -4.79%,–
O=S(=O)(c1cccc(-c2csc(-c3ccccc3)n2)c1)N1CCOCC1,inactive: 20.3%,–
CCN(CC)c1ccc(C=NNC(=O)Cc2cc(=O)[nH][nH]2)c(O)c1,inactive: 12.1%,–
COc1ccccc1NC(=O)c1sc2ncn(CC(=O)Nc3ccccc3)c(=O)c2c1C,inactive: -2.45%,–
O=C(c1c(Cl)cccc1Cl)N1CCN(c2ccccn2)CC1,inconclusive: 50.6% [activator],–
O=S(=O)(O)Sc1ccccc1,inactive: 2.7%,–
CCOC(=O)c1c(/N=C/C2=C(O)CCCC2=O)sc(C)c1C,inactive: 25.7%,–
COc1ccc(S(=O)(=O)Nc2ccc3c(c2)CC(=O)N([C@H](C)CO)C[C@H](C)[C@H](CN(C)C(=O)Nc2ccc4c(c2)OCO4)O3)cc1,–,"inconclusive: 15.8 µM [activator, partial curve, poor fit]"
